# The full ranking holds about 33,000 sequences; the median of “E-score (-0.5 to 0.5)” is about -0.012, and the highest 2% start at about 0.29. Some of the results follow.
# Target: T1, Ybr033w (UniProt P38073)
# T1 sequence: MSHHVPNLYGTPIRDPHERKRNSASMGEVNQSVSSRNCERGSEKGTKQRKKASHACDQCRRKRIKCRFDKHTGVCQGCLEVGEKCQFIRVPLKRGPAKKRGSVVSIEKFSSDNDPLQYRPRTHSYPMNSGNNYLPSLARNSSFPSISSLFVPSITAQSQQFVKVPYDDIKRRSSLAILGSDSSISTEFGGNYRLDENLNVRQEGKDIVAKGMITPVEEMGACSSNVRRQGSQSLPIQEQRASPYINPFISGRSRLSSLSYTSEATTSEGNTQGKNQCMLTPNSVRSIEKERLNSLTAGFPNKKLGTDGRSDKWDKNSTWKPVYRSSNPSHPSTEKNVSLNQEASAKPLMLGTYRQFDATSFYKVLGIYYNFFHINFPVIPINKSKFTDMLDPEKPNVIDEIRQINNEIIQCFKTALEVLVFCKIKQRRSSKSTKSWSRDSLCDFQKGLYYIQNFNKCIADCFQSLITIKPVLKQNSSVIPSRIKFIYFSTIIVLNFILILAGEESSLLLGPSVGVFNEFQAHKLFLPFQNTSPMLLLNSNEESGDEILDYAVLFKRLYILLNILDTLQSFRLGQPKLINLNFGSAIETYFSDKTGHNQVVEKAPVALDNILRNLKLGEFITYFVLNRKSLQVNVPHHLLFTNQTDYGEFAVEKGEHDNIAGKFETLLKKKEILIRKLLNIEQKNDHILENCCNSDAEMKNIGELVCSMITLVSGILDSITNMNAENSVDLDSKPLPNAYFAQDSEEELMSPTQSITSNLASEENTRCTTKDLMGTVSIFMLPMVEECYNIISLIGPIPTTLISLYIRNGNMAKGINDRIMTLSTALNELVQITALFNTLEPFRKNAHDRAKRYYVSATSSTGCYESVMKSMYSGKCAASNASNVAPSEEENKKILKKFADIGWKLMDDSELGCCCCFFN
# Assay: PBM E-score (8-mer binding enrichment) (E-score (-0.5 to 0.5)); higher = stronger / more preferred TF binding; most listed sequences are background and not binding sites
# Settings: protein concentration: 200 nM; construct: GST-full length
# Procedure, shortened: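 GST-tagged yeast TFs (full-length or DNA-binding domain) were made by PURExpress in vitro transcription/translation and applied at about 100-200 nM to universal all-10-mer Agilent arrays. The arrays were made double-stranded by primer extension, on fresh or once-stripped slides. Bound protein was detected with fluorescent anti-GST, and scans were normalised with masliner. Each ungapped eight-base word, pooled with its reverse complement, received an E-score (modified Wilcoxon-Mann-Whitney statistic) from the Universal PBM Analysis Suite.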
row,Sequence,PBM E-score
1,AGTCAGGC,-0.0549
2,GAATCATC,0.116
3,CATCTGAA,0.18
4,ATACTATC,0.109
5,GCGTGCCA,-0.302
6,GATTCCAA,0.0979
7,CCCAGGAC,-0.354
8,CGTGTAAG,0.147
9,TATGACCA,0.0434
10,AATACTAC,0.223
11,ACGCTATC,-0.0616
12,AGTAGACG,0.0471
13,GAAGTGTA,-0.166
14,CCTCCGTC,-0.188
15,AACTGGAG,0.0172
16,CCGGTACC,-0.158
17,AACGTATC,-0.0815
18,ATAGAAAC,0.206
19,AGGTCTGC,-0.104
20,AAGAGCTT,0.0991
21,GTAACGGA,0.0744
22,GTAAGGAC,-0.0859
23,ACAGGACG,-0.166
24,GTTTAAAC,0.233
25,AACTTCGC,0.043

row,Sequence,PBM E-score
1,CTGCGCCA,-0.0965
2,ATAATGAC,-0.0726
3,AGGTTGAG,-0.167
4,TGTCCGAA,0.0982
5,AACCTCTA,-0.0942
6,CTGTTTTC,0.032
7,ACAGGAGC,-0.0855
8,GTGCGGTA,-0.0389
9,CCAGCAGG,-0.311
10,AGTAGAGC,-0.233
11,AGCTCAAT,0.06
12,CTTACTCA,0.071
13,GATGAAGA,-0.164
14,AGAGTGGC,-0.198
15,GGCTCCAA,-0.0151
16,ATCGCATC,-0.087
17,GAGCCCGC,-0.32
18,AGTCTGTA,-0.176
19,CAGTCGAC,0.106
20,ATAGACCC,0.00396
21,ACCCATGA,-0.0395
22,GCATACCA,-0.116
23,ACCCCCGA,-0.193
24,TGGATCAA,0.377
25,ACGGATGC,-0.0974

row,Sequence,PBM E-score
1,CCAAATCA,0.0506
2,CACGGAGC,-0.13
3,GGGAACTA,-0.0908
4,GGACGTAA,-0.0697
5,CGGGAAAG,-0.211
6,ACGGTCAT,-0.0709
7,CTTCTGTC,0.0598
8,CTCTGACC,-0.237
9,CGCATTTC,-0.0058
10,ACATGTAC,-0.0188
11,GCTCGTCA,-0.162
12,GGCTAACC,-0.21
13,GAAGAAAC,0.0906
14,CTAATGTA,0.127
15,ACAGCTAC,-0.0634
16,AAACTAAA,0.205
17,TAACCACA,0.0948
18,GTAGGTAA,0.19
19,ATAACGCA,0.0602
20,CCGGAAAG,-0.0245
21,CATCGCTA,-0.00495
22,TGTAAACA,0.181
23,ATGATGGA,0.0661
24,ATCGATCG,0.0389
25,AATAGCTC,-0.0681

row,Sequence,PBM E-score
1,CGACACGC,-0.0489
2,GCCCCTCA,-0.405
3,GGTCATAC,-0.208
4,AACGTGAA,0.018
5,CTTATGGA,-0.0514
6,ATCAGCGA,0.0254
7,CTTACTGC,-0.0255
8,GTTATCAA,0.144
9,CATACCCC,-0.193
10,ACCGCGAA,-0.0164
11,GCGACGTA,0.0221
12,CCAATAAC,0.132
13,ACGGAACA,0.298
14,CAAGCTTC,-0.0203
15,ACCGGCTG,-0.197
16,AGTTCTGC,-0.138
17,AAACCTCC,-0.0391
18,ACTAATAA,0.276
19,CGCGTACG,0.00707
20,ATGGGCTC,-0.25
21,ACTCCGAT,0.074
22,CGATCTAG,-0.184
23,AGACCTTG,-0.0565
24,CGTGAGTC,-0.181
25,CGCCCATC,-0.166

row,Sequence,PBM E-score
1,GCTACGGA,-0.0825
2,CAACACGC,-0.0833
3,AGACTTCG,-0.198
4,ACCCCCAA,-0.22
5,ACGCCTAA,-0.0703
6,AAAGCGCG,-0.0935
7,AAGTCTGC,-0.166
8,GCAATATA,0.123
9,ATTTCCGA,0.247
10,TGTTTCAA,0.216
11,CTAGACCC,-0.194
12,AACAAAGA,0.174
13,AAACAGCA,0.0447
14,CTGTGCGA,-0.0596
15,CTGGAGTA,0.0746
16,CAGGCTGG,-0.177
17,CTAATCCC,-0.0661
18,AAGCACAC,0.0146
19,CTATCGGA,0.0825
20,ATCCCGGC,-0.0706
21,GTACAGTA,0.021
22,AACAGTGA,-0.0153
23,TTACGCAA,0.257
24,CAGAAAGG,-0.0904
25,CCCCCGCA,-0.212

row,Sequence,PBM E-score
1,AGTCACAG,0.0385
2,CTGTGTTC,0.0163
3,AACGCATA,0.0627
4,ACCGACGG,-0.139
5,CGATGGCA,-0.0591
6,CGCAATAG,0.0121
7,TCCGAAGA,0.0524
8,CAATACCC,-0.0197
9,CGGAGAAC,-0.02
10,CAGGGAAG,-0.194
11,TACGCTCA,0.0311
12,GCGTCCAA,-0.0752
13,GTGATAAA,0.102
14,CTTCAATA,0.113
15,TAGCACAA,0.0785
16,TGGCGAAA,0.0143
17,CGTCTCAG,-0.138
18,AAAGATCG,-0.0193
19,ACCTCTCC,-0.159
20,CTTAATAC,0.136
21,GAAGGGAA,-0.074
22,AACTCGAG,0.0409
23,GAATTTGA,0.214
24,GAGAATCC,0.0118
25,TAAGACTA,-0.0167

row,Sequence,PBM E-score
1,CAGATTAC,0.0918
2,ACGATGTA,0.141
3,CAGGGTCC,-0.236
4,CGATGATA,0.0954
5,CATAGCTC,-0.153
6,CGAGCGTA,-0.0477
7,ACAGTGGA,0.0657
8,TAGACGAA,0.0257
9,AGAGTGCA,-0.114
10,GAGTGTCA,-0.0498
11,AAGAACCC,-0.105
12,CCCAATAC,0.0528
13,ACCATAAA,0.229
14,ATTTACCC,0.156
15,GGAGTGTA,-0.233
16,AACTTGTA,0.0769
17,CCCAAGCG,-0.195
18,GCCCACCA,-0.177
19,CTTTGGTA,-0.00701
20,ATTAACAC,0.368
21,AGGAACGG,-0.00492
22,CATAACAG,-0.00784
23,CTTAAAGA,-0.102
24,GTCCACGA,-0.0232
25,AGCTAATC,0.098

row,Sequence,PBM E-score
1,TAGCCAGA,-0.138
2,ACGCTCGC,-0.207
3,AGAGTCTG,-0.244
4,GGAGCTAC,-0.236
5,GAGATCTA,-0.0293
6,CATATGAA,0.127
7,GTACTCGA,-0.174
8,TGTTACAA,0.213
9,AATTGTAA,0.188
10,AGCCCAGC,-0.2
11,ACAGGGAA,-0.0262
12,CATTCCTC,0.032
13,GACCCTTA,-0.132
14,AAGATTAA,0.289
15,GAAACCTA,-0.0567
16,AAGCTACA,0.00981
17,CATCACGC,-0.0824
18,ATGCTTAA,0.0681
19,ATGTTGCC,-0.0501
20,GCGTTCAC,-0.0913
21,CAAGCCTG,-0.108
22,ACTACAGT,0.139
23,AGCGGCCC,-0.381
24,AAATGCGT,0.073
25,TCATGTAA,0.0445

row,Sequence,PBM E-score
1,ATTTGTAC,0.228
2,CATAGACA,0.0148
3,GAGTCTGA,-0.19
4,CGAGAGAC,-0.188
5,CAATCCGC,0.0665
6,AATGCAAG,0.175
7,CGTCTCAC,-0.0438
8,CGTAGGTC,-0.141
9,TGGTAAAA,0.207
10,ACTAAGAT,0.206
11,AACATCAA,0.319
12,GCGAGTGA,-0.0502
13,ACTTCTCC,-0.0598
14,ATAGAGGG,-0.00016
15,ATACCTAT,0.102
16,CTGGTATA,-0.11
17,TATTGCGA,0.145
18,ACCGAGTA,0.0143
19,GGCTTATA,-0.124

# From the supplement of paper PMC3334620
